{"source": "PubChem BioAssay AID1345083", "about": "(National Center for Advancing Translational Sciences (NCATS), 2018)", "note": "Several values for one entry are separate records, joined by “and”; a condition that tells them apart may be missing. Equal values may be shown once. The whole screen tested about 94,000 compounds, of which about 6,200 (6.6%) were called active. The shares of active, inactive and inconclusive entries below differ from those in the screen. Calls follow the shape of the dose curve; as a rule, active = well fitted inhibition curve with a large enough effect; inconclusive = small, poorly fitted or top-dose-only effect; inactive = flat fitted curve, though single readings scatter. Where the call is inconclusive, the potency comes from a doubtful curve fit. Potency is read from the fitted curve at half-maximal effect; tags tell the direction and shape of the fitted curve."}
{"test": "Cytotoxic Profiling in HEK 293 Cell Line of Diverse Libraries Using Quantitative High-Throughput Screening; also: nearly all actives have a fitted effect of over 60% in size", "settings": "HEK 293 viability, ATP luminescence (CellTiter-Glo), 48-72 h; series mostly up to 115 µM", "how_it_was_run": "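ATP-coupled CellTiter-Glo luminescence served as viability read-out, recorded 10 min after reagent addition at room temperature. HEK 293 cells, 250 cells/well, had been incubated with pintool-transferred compound for 48 or 72 hr at 37 degree Celsius.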"}
{"compound": "O=C1Nc2ccc(-c3ccc(Cl)cc3)cc2C(=O)N2CCN(C(=O)c3cccc(F)c3)C[C@H]12", "Potency": "inconclusive: 44.7 µM [inhibitor, partial curve, poor fit]"}
{"compound": "O=[S+]([O-])(c1ccccc1)N1CCN(Cc2ccccc2-c2ccccc2F)CC1", "Potency": "active: 22.4 µM"}
{"compound": "O=C(Cc1ccccc1)N1CCCC(c2noc(COc3ccccc3F)n2)C1", "note": "(stereo not drawn)", "Potency": "inconclusive: 79.4 µM [inhibitor, single point]"}
{"compound": "COc1ccc2[nH]c3c(c2c1)CCNC31CCN(C(=O)c2ccnn2C)CC1", "Potency": "inconclusive: 79.4 µM [inhibitor, partial curve]"}
{"compound": "N#Cc1ccc(C(=O)Nc2ccc([C@@H](O)[C@H]3COCC(=O)N3CCCc3ccccc3)cc2)cc1", "Potency": "inconclusive: 44.7 µM [inhibitor, partial curve, poor fit]"}
{"compound": "Oc1cc(-c2cccc(Cl)c2)cc2c1OCCN(c1cc(C3CC3)ncn1)C2", "Potency": "inconclusive: 50.1 µM [inhibitor, partial curve, poor fit]"}
{"compound": "CN(Cc1cc(F)c(F)c(F)c1)C1CCc2nn(CC3CC3)c(=O)n2CC1", "note": "(stereo not drawn)", "Potency": "inconclusive: 44.7 µM [inhibitor, partial curve, poor fit]"}
{"compound": "COc1ccc2nc(C[C@@H]3C[C@@H](C(C)C)[C@H](CNC(=O)[C@@H]4CCCC[C@@H]4C(=O)O)C=C3C)[nH]c2c1", "Potency": "inactive"}
{"compound": "COc1ccccc1Nc1ccnc(N2CCCC(C(=O)NCC(F)(F)F)C2)n1", "note": "(stereo not drawn)", "Potency": "inconclusive: 44.7 µM [inhibitor, partial curve, poor fit]"}
{"compound": "CCc1noc([C@@H]2CC(F)(F)CN2C(=O)c2cc(C3CC3)[nH]n2)n1", "Potency": "inactive"}
{"compound": "c1ccc(CNc2cc3c(cn2)CN(Cc2cccnc2)CCN3)cc1", "Potency": "inactive"}
{"compound": "O=C(NC1CCN(c2nccc(Nc3ccccc3F)n2)CC1)c1cccc(Cl)c1", "Potency": "inconclusive: 44.7 µM [inhibitor, partial curve, poor fit]"}
{"compound": "CC(C)NC(=O)N[C@H]1CCN2C(=O)c3cc(Br)ccc3NC(=O)[C@@H]2C1", "Potency": "inconclusive: 100 µM [inhibitor, partial curve, poor fit]"}
{"compound": "Cc1ccc(-c2nc(C(=O)N3CCN(c4cccc(C)c4C)CC3)no2)cc1", "Potency": "inconclusive: 89.1 µM [inhibitor, single point]"}
{"compound": "O=C(c1ccco1)N1CC(Oc2ccccc2-c2nc(C3CC3)no2)C1", "Potency": "inconclusive: 50.1 µM [inhibitor, partial curve, poor fit]"}
{"compound": "O=C(NCC(F)(F)F)c1cc(C2CC2)nc2c1c(C1CCCN1)nn2-c1ccccc1", "note": "(stereo not drawn)", "Potency": "inconclusive: 39.8 µM [inhibitor, partial curve, poor fit]"}
{"compound": "Cc1ccc(-c2nnc(C3CN(C(=O)c4cccs4)CC34CCOCC4)o2)cc1", "note": "(stereo not drawn)", "Potency": "inconclusive: 89.1 µM [inhibitor, single point]"}
{"compound": "O=C(c1ccccc1Cl)N1CCC(n2cc(-c3nc(-c4ccccc4)no3)nn2)CC1", "Potency": "inconclusive: 50.1 µM [inhibitor, partial curve, poor fit]"}
{"compound": "N#Cc1ccc2nc([C@H]3CCN(Cc4ccccc4)C3)[nH]c2c1", "Potency": "active: 50.1 µM"}
{"compound": "O=C(CN1C(=O)COc2ccc(C(=O)COc3cccc(F)c3)cc21)NCc1ccc2c(c1)OCO2", "Potency": "inactive"}
{"compound": "COc1ccc(C(=O)N2CCC(CC(=O)N3CCOCC3)C2)cc1OC", "note": "(stereo not drawn)", "Potency": "inactive"}
{"compound": "CC(C)c1cc(C(=O)NC2CCN(c3ncccc3C#N)CC2)n(C)n1", "Potency": "inconclusive: 10 µM [inhibitor, full curve, poor fit]"}
{"compound": "COc1ccc(CN2C[C@H]3CN(Cc4ccc([N+](=O)[O-])cc4)CCN3C2=O)cc1", "Potency": "inconclusive: 50.1 µM [inhibitor, partial curve, poor fit]"}
{"compound": "COc1ccc(-c2nc(C(C)C)nc3c2CN(C(=O)c2ccc4c(c2)OCO4)CC3)cc1", "Potency": "inconclusive: 50.1 µM [inhibitor, partial curve, poor fit]"}
{"compound": "O=[S+]([O-])(c1ccccc1)N1CCCC2(CC(c3ccccn3)=NO2)C1", "note": "(stereo not drawn)", "Potency": "inactive"}
{"compound": "CC(C)NC(=O)N(C1CC1)C1CCOC2(CCN(C(=O)CCCc3ccccc3)CC2)C1", "note": "(stereo not drawn)", "Potency": "inconclusive: 10 µM [inhibitor, full curve, poor fit]"}
{"compound": "Cc1nn(-c2ccccc2)c2c1C(C)N(C1CCCN([S+](=O)([O-])C(C)C)C1)C2=O", "note": "(stereo not drawn)", "Potency": "inconclusive: 50.1 µM [inhibitor, partial curve, poor fit]"}
{"compound": "O=C(NCc1ccc(F)cc1)C1CCc2sc(C(=O)N3CCCC3)cc2C1", "note": "(stereo not drawn)", "Potency": "active: 50.1 µM"}
{"compound": "COCCn1c(C)cnc1CCNS(=O)(=O)c1cccnc1", "Potency": "inactive"}
{"compound": "CN(Cc1ccc(C#N)cc1)Cc1cccc2cnccc12", "Potency": "inconclusive: 50.1 µM [inhibitor, partial curve, poor fit]"}
{"compound": "Cc1cnc(C(=O)N2CCOc3ccc(CCC(N)=O)cc3C2)cn1", "Potency": "inactive"}
{"compound": "C=CCn1cc(-c2c(-c3ccccc3)ncn2Cc2cncn2CCOC)cn1", "Potency": "inconclusive: 89.1 µM [inhibitor, single point]"}
{"compound": "C=CCn1cc2c3c(cccc31)[C@H](CC(C)C)N[C@H](C(=O)NC1CCCC1)C2", "Potency": "active: 39.8 µM"}
{"compound": "COCCOCC1(CNCc2cn(C)c3ccccc23)C[C@@H](O)[C@@H](O)C1", "note": "(stereo partly drawn)", "Potency": "inactive"}
{"compound": "CC(C)C(=O)NCCC1CCN(C(=O)Nc2cc(F)cc(F)c2)CC1", "Potency": "inactive"}
{"compound": "O=C(c1ccc2c(c1)N(C(=O)c1ccccc1)CC2)N1CCN(c2ccc(Cl)cc2)CC1", "Potency": "active: 31.6 µM"}
{"compound": "O=C(c1ccc2c(c1)OCO2)N1CCCC2(CNc3ccccc3[S+](=O)([O-])N2)C1", "note": "(stereo not drawn)", "Potency": "inactive"}
{"compound": "Cc1ccc([S+](=O)([O-])N2CCC(C(=O)N3CCC(N4CCOCC4=O)CC3)CC2)cc1", "Potency": "inactive"}
{"compound": "COc1ccccc1-c1ccc(CN2CCCCC2C(=O)NC2CC2)cc1", "note": "(stereo not drawn)", "Potency": "active: 44.7 µM and active: 39.8 µM"}
{"compound": "CCOc1ccc(NC(=O)Cn2ccn3nc4c(c3c2=O)CC(C)CC4)cc1", "note": "(stereo not drawn)", "Potency": "active: 39.8 µM"}
{"compound": "O=C(NCc1ccc(-c2ccc(Cl)cc2)o1)C1NCCc2[nH]cnc21", "note": "(stereo not drawn)", "Potency": "inconclusive: 63.1 µM [inhibitor, partial curve, poor fit]"}
{"compound": "O=C(c1cc2n(n1)CC(c1ccc3c(c1)OCO3)OC2)N1CCCC1", "note": "(stereo not drawn)", "Potency": "inconclusive: 31.6 µM [inhibitor, partial curve, poor fit]"}
{"compound": "COCCN1C(=O)CC[C@]2(C(=O)NCc3ccc(OC)c(OC)c3)CCCC[C@@H]12", "Potency": "inconclusive: 79.4 µM [inhibitor, single point]"}
{"compound": "Cc1nc(-c2ccccc2OC2CN(C(=O)c3cccc4[nH]ccc34)C2)no1", "Potency": "inconclusive: 79.4 µM [inhibitor, single point]"}
{"compound": "Cc1cnc(CN2CC(C)(Cc3ccc4c(c3)OCO4)CCC2=O)cn1", "note": "(stereo not drawn)", "Potency": "inconclusive: 56.2 µM [inhibitor, partial curve, poor fit]"}
{"compound": "CCNc1cc(N2CCC(CCC(=O)NCc3cccc(F)c3)CC2)ncn1", "Potency": "inconclusive: 28.2 µM [inhibitor, partial curve, poor fit]"}
{"compound": "COc1ccc(CNC(=O)Cn2c(-c3cccc(Cl)c3)nc(C)c(CCO)c2=O)cc1OC", "Potency": "inconclusive: 50.1 µM [inhibitor, partial curve, poor fit]"}
{"compound": "CCN(CC)CC(=O)N1CCCC(N2CCN(c3ccc(F)cc3)CC2)C1", "note": "(stereo not drawn)", "Potency": "inactive"}
{"compound": "COc1ccc(CN2C=C(C(=O)OCc3noc(C4CCCC4)n3)C(C)=NS2(=O)=O)cc1", "Potency": "inconclusive: 50.1 µM [inhibitor, partial curve, poor fit]"}
{"compound": "CC1(C(=O)NCc2ccco2)CN(Cc2ccccc2)Cc2ccc(N3CCOCC3)nc21", "note": "(stereo not drawn)", "Potency": "inconclusive: 56.2 µM [inhibitor, partial curve, poor fit]"}
{"compound": "COc1cccc(CN2CCC3(CC2)C(=O)NCN3Cc2ccc(Cl)cc2)c1", "Potency": "inconclusive: 89.1 µM [inhibitor, single point]"}
{"compound": "Cc1nn(-c2ccccn2)c(C)c1[C@@H]1C=C[C@@H](NC(=O)CC(C)(C)CC(=O)O)C1", "Potency": "inconclusive: 126 µM [inhibitor, single point]"}
{"compound": "COc1cccc(-c2cn3cc(C(=O)Nc4ccc(C)cc4)nc3s2)c1", "Potency": "inconclusive: 50.1 µM [inhibitor, partial curve, poor fit]"}
{"compound": "CNS(=O)(=O)CCNc1nc(-c2ccccn2)nc2c1c(C)nn2C", "Potency": "inactive"}
{"compound": "Cc1nc(C(=O)N2CC[C@H](N3CCN(C)CC3)[C@H](CCCO)C2)cs1", "Potency": "inconclusive: 25.1 µM [inhibitor, full curve, poor fit]"}
{"compound": "Cc1noc(-c2ccc(OC3CN(C(=O)C(C)Oc4ccccc4)C3)cc2)n1", "note": "(stereo not drawn)", "Potency": "inconclusive: 39.8 µM [inhibitor, partial curve]"}
{"compound": "O=C(NCC1CCCCC1)c1ccc2oc(-c3ccccn3)nc2c1", "Potency": "inactive"}
{"compound": "Cc1[nH]cnc1CN1CCc2nc(C(=O)Nc3cccc(C(F)(F)F)c3)oc2CC1", "Potency": "inconclusive: 100 µM [inhibitor, partial curve, poor fit]"}
{"compound": "Cc1noc2c(-c3cccnc3)cc(-c3cccc(C(F)(F)F)c3)nc12", "Potency": "inconclusive: 100 µM [inhibitor, partial curve, poor fit]"}
{"compound": "CC(C)C[C@@H]1N[C@H](C(=O)N(C)CCC#N)Cc2c[nH]c3cccc1c23", "Potency": "inactive"}
{"compound": "Cc1ccc(NC(=O)Cn2ccn3nc4c(c3c2=O)CC(C)CC4)cc1Cl", "note": "(stereo not drawn)", "Potency": "inconclusive: 89.1 µM [inhibitor, single point]"}
{"compound": "Cc1cnn(Cc2cc(C(=O)N3CC[C@@H](n4c(=O)n(C)c5cccnc54)C3)no2)c1", "Potency": "inactive"}
{"compound": "O=C(NCc1ccccc1F)C1CCc2nnc(C3CCN([S+](=O)([O-])c4ccccc4Cl)CC3)n21", "note": "(stereo not drawn)", "Potency": "inactive"}
